Assay results taken from PubChem BioAssay AID1030 (National Center for Advancing Translational Sciences (NCATS), 2008).
The campaign covered roughly 220,000 compounds. About 16,000 (7.3%) were called active. The inconclusive results got no clear call from the source; some entries with a clear call stand among them for comparison. Calls come from the whole dose curve; as a rule, active = well fitted inhibition curve with a large enough effect (not every such curve was filed as active); inconclusive = small, poorly fitted or top-dose-only effect, or another doubt; inactive = no such curve, though single readings can be large or run the other way. Potencies of inconclusive entries are left out as doubtful fits.

Target: Aldehyde dehydrogenase 1A1 (Homo sapiens) (UniProt P00352)
UniProt P00352, sequence (P00352 whole entry, looked up): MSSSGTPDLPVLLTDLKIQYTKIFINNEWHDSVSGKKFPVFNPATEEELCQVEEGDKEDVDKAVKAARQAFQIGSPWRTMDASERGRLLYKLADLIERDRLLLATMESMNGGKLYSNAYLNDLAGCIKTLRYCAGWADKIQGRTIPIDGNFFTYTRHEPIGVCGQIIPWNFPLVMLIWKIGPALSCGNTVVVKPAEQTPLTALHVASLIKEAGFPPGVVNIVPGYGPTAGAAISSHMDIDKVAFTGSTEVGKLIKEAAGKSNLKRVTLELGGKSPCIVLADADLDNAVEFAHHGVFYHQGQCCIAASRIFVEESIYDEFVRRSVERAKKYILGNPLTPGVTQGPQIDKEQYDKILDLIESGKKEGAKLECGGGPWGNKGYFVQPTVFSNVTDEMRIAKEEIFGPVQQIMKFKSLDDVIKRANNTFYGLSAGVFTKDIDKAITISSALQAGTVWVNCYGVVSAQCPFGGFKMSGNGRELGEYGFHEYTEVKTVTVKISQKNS
Experiment: qHTS Assay for Inhibitors of Aldehyde Dehydrogenase 1 (ALDH1A1)
Conditions: Purified ALDH1A1, NADH fluorescence, propionaldehyde substrate; series mostly up to 75.3 µM
Potency is the fitted concentration of half-maximal effect; tags give direction and shape of the fitted curve.

Structure (SMILES)	Potency
COc1ccc(-n2cc(CNCCCn3ccnc3)c(-c3cccc(F)c3)n2)cc1	inconclusive [inhibitor, partial curve]
Cc1ccc(-c2ccc(=O)n(CC(=O)NCCCN3CCCCC3)n2)cc1	inconclusive [inhibitor, partial curve]
CCn1c(=O)c2c(n3c(=S)[nH]nc13)-c1ccccc1CC21CCCCC1	active: 22.4 µM
Cc1c(C(=O)OCC(C)C)[nH]c2c1C(=O)CC(c1ccco1)C2 (stereo not drawn)	active: 11.2 µM
CCOc1cccc(/C=N/NC(=S)Nc2ccccc2[N+](=O)[O-])c1O	inactive
Cc1ccccc1CN1CCN(C/C=C/c2ccccc2)CC1	inconclusive [inhibitor, single point]
C=C(C(C)=O)C(O)c1ccc(C(F)(F)F)cc1 (stereo not drawn)	inactive
O=c1c(-c2cccs2)nc2cnc(Oc3cccc(Cl)c3)nc2n1C[C@H]1CCCO1	inconclusive [inhibitor, full curve]
O=c1oc2c(CN3CCOCC3)c(O)ccc2c2c1CCC2	inconclusive [inhibitor, partial curve]
CCC(C)(C)n1nnnc1C(c1cc2cc(C)cc(C)c2[nH]c1=O)N1CCCC1 (stereo not drawn)	inconclusive [inhibitor, single point]
Cc1cccc(-n2c(=O)c3c(n4cnnc24)-c2ccccc2CC32CCCCC2)c1	inactive
N#CCSc1nc(Nc2ccc3c(c2)OCO3)c2ccccc2n1	inactive
COc1ccccc1N1CCN(C(=O)CN(c2cc(C)cc(C)c2)S(C)(=O)=O)CC1	inactive
Cc1ccc(CNC(=O)CCS(=O)(=O)c2cccc3nonc23)cc1	active: 39.8 µM
O=[N+]([O-])c1ccc(Oc2cccnc2)nc1	inactive
CCOc1ccccc1N(CC(=O)N1CCCCCC1)S(C)(=O)=O	inactive
Cc1nc(N2CCN(Cc3ccccc3)CC2)nc2c1C(=O)CCC2	inconclusive [inhibitor, single point]
O=C(NN(c1ccccc1)c1ccccc1)c1ccc([N+](=O)[O-])o1	inconclusive [inhibitor, single point]
c1coc(-c2nc3c4c5c(sc4ncn3n2)CCCC5)c1	inactive
COc1ccc(N(C(=O)c2ccco2)S(=O)(=O)c2cc(Cl)c(Cl)cc2Cl)cc1	inconclusive [inhibitor, single point]
Cc1ccc(Oc2ccc3c(c2)C(=O)N(c2cccc4cccnc24)C3=O)cc1	active: 11.2 µM
COc1ccc(C2CC(c3ccccc3)=NN2c2ccc(Cl)c(C(=O)O)c2)cc1 (stereo not drawn)	inconclusive [inhibitor, partial curve]
CCOc1ccccc1CNC(=O)C1CCCN(c2nc3ccccc3o2)C1 (stereo not drawn)	inconclusive [inhibitor, partial curve]
COc1ccc(OC)c(CNc2ccc([N+](=O)[O-])cc2C)c1	inconclusive [inhibitor, single point]

Structure (SMILES)	Potency
COc1ccc(S(=O)(=O)N(C)CC(=O)Nc2ccc(C(F)(F)F)cc2)cc1Cl	inactive
CCCNS(=O)(=O)c1ccc(CCC(=O)N2CCC(C)CC2)cc1	inconclusive [inhibitor, single point]
N#C/C(=C\c1ccc(O)c(O)c1)C(=O)c1ccc(O)c(O)c1	inconclusive [inhibitor, partial curve]
CCC(C)c1ccc(O)c(N)c1 (stereo not drawn)	active: 25.1 µM
Cn1c(C(=O)NCc2ccccn2)cc2c(=O)n3ccccc3nc21	inconclusive [inhibitor, partial curve]
COC(=O)c1ccc(COc2cccc3c2CCN(Cc2ccccc2)C3=O)o1	inconclusive [inhibitor, single point]
O=C(O)c1cc(-c2ccc(/C=N/N3C(=O)C4C5C=CC(CC5)C4C3=O)o2)ccc1Cl (stereo not drawn)	active: 11.2 µM
CCc1ccc(C(=O)/C=C/Nc2ccc(S(=O)(=O)Nc3onc(C)c3C)cc2)cc1	inconclusive [inhibitor, single point]
COCOc1ccc(OC)cc1C(=O)/C=C/c1ccc(OC)c(Br)c1	inactive
O=C(Nc1c(C(=O)O)oc2ccc(Br)cc12)c1ccccc1	active: 28.2 µM
CC(/C=N/n1c(-c2ccccc2)n[nH]c1=S)=C\c1ccco1	inconclusive [inhibitor, single point]
O=C(Nc1ccc(F)cc1)N(CCCN1CCOCC1)Cc1cc2cc3c(cc2[nH]c1=O)OCO3	inconclusive [inhibitor, partial curve]
CC1CCN(CCOc2ccc(Cl)c(Cl)c2)CC1	inactive
O=C(/C=N/O)NCCCN1CCCCCC1	inactive
O=S(=O)(c1ccccc1)c1ncc(C(F)(F)F)cc1Cl	active: 10 µM
COc1cccc(CNC(=O)CCSCc2ccccc2F)c1	inconclusive [inhibitor, full curve]
O=C(NCCc1ccccc1)C1CCN(S(=O)(=O)c2cccs2)CC1	active: 10 µM
Cc1cc(/C=N/O)c(C)n1-c1cccc(Cl)c1	active: 14.1 µM
CC(C)c1cc(C(=O)Nc2cccnc2)no1	inconclusive [inhibitor, partial curve]
Cn1nnnc1SCC(=O)Nc1cccc(S(=O)(=O)N2CCCC2)c1	inconclusive [inhibitor, single point]
CCCCNC(=O)CC1N=C2c3ccccc3N=C(SCC(=O)Nc3cccc(C)c3)N2C1=O (stereo not drawn)	inconclusive [inhibitor, single point]
CN(C)C(=O)c1ccc(-c2ccc3ncnc(Nc4ccccc4)c3c2)cc1	inconclusive [inhibitor, partial curve]
CCOC(=O)C1CCN(S(=O)(=O)c2ccc(-c3ccccn3)s2)CC1	inconclusive [inhibitor, single point]
CCOC(=O)c1[nH]cnc1C(=O)Nc1ccccc1	inconclusive [inhibitor, single point]
